The values below come from a collection of fitness landscapes (doi:10.1016/j.celrep.2020.107928).

Over roughly 81,000 sequences, “one-hybrid fitness for binding NBS DNA” has its median near -0.1; the highest 2% begin near 0.36. The list shows a part of the results.

The chains are these.
B1: Caulobacter ParB omega fusion; a variant is named by its letters at X, in order, B8GW30 (parent)
chain: MESVVVGEPGMSEGRRGLGRGLSALLGEVDAAPAQAPGEQLGGSREAPIEILQRNPDQPRRTFREEDLEDLSNSIREKGVLQPILVRPSPDTAGEYQIVAGERAWRAAQRAGLKTVPIMVRELDDLAVLEIGIIENVQRADLNVLEEALSYKVLMEKFERTQENIAQTIGKSXSHVANXMRLLXLPDEVQSYLVSGELTAXHARAIAAAADPVALAKQIIEGGLSVRETEALARKAPNLSAGKSKGGRPPRVKDTDTQALESDLSSVLGLDVSIDHRGSTGTLTITYATLEQLDDLCNRLTRGI

The variants in this experiment derive from B1. As to the kind of experiment: one-hybrid fitness for binding NBS DNA (the Noc-binding site; scaled: cognate 1, non-cognate 0); higher = stronger binding. As to conditions: with NBS DNA site. An outline of the steps:
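Bacterial one-hybrid selection in E. coli USO rpoZ- hisB- pyrF- with a HIS3 reporter carrying the site 19 bp from the promoter, screening Caulobacter ParB libraries with four specificity codons randomised (NNS). Cells grew 48 hours at 37°C on M9-minus-histidine plus 0.1 mM IPTG and 5 mM 3-AT. Plasmids before and after selection were Illumina-sequenced, three replicate libraries pooled, and variants under 10 reads dropped. Fitness is the log change in variant-to-wild-type read ratio, rescaled to cognate 1, non-cognate 0.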
VLRV: the “one-hybrid fitness for binding NBS DNA” value was ≤ 0.2.

Regarding ASHF, the “one-hybrid fitness for binding NBS DNA” value was ≤ 0.2.

Consider CAVI, for which the “one-hybrid fitness for binding NBS DNA” value was ≤ 0.2.

As to GITV, the “one-hybrid fitness for binding NBS DNA” value is ≤ 0.2.

As for IAYC, the “one-hybrid fitness for binding NBS DNA” value was ≤ 0.2.

QIHV: the “one-hybrid fitness for binding NBS DNA” value is ≤ 0.2.

As for KAFR, the “one-hybrid fitness for binding NBS DNA” value was ≤ 0.2.

As to VGAE, the “one-hybrid fitness for binding NBS DNA” value was ≤ 0.2.

For SDLT, the “one-hybrid fitness for binding NBS DNA” value is ≤ 0.2.

For the variant PLPK, the “one-hybrid fitness for binding NBS DNA” value is ≤ 0.2.

Regarding PMPQ, the “one-hybrid fitness for binding NBS DNA” value was ≤ 0.2.

As to HVEG, the “one-hybrid fitness for binding NBS DNA” value was ≤ 0.2.

For the variant VCTS, the “one-hybrid fitness for binding NBS DNA” value was ≤ 0.2.

Consider SDTD, for which the “one-hybrid fitness for binding NBS DNA” value was ≤ 0.2.

On to PPDA, for which the “one-hybrid fitness for binding NBS DNA” value is ≤ 0.2.

Regarding LDMD, the “one-hybrid fitness for binding NBS DNA” value was ≤ 0.2.

For LRLV, the “one-hybrid fitness for binding NBS DNA” value was ≤ 0.2.

For SHRH, the “one-hybrid fitness for binding NBS DNA” value was ≤ 0.2.

Take PAIY: the “one-hybrid fitness for binding NBS DNA” value is ≤ 0.2.

Consider SCEV, for which the “one-hybrid fitness for binding NBS DNA” value is ≤ 0.2.

Turning to IWEL, the “one-hybrid fitness for binding NBS DNA” value was ≤ 0.2.

Turning to TVHQ, the “one-hybrid fitness for binding NBS DNA” value was ≤ 0.2.

SPRC: the “one-hybrid fitness for binding NBS DNA” value is ≤ 0.2.

Take SLMS: the “one-hybrid fitness for binding NBS DNA” value is ≤ 0.2.

On to QLVA, for which the “one-hybrid fitness for binding NBS DNA” value was ≤ 0.2.

For the variant RNMN, the “one-hybrid fitness for binding NBS DNA” value was ≤ 0.2.

As for MRHC, the “one-hybrid fitness for binding NBS DNA” value was ≤ 0.2.

Regarding EVAT, the “one-hybrid fitness for binding NBS DNA” value is ≤ 0.2.

Regarding LWSC, the “one-hybrid fitness for binding NBS DNA” value is ≤ 0.2.

With IRNG, the “one-hybrid fitness for binding NBS DNA” value is ≤ 0.2.

Take DSDY: the “one-hybrid fitness for binding NBS DNA” value was ≤ 0.2.

Take HELR: the “one-hybrid fitness for binding NBS DNA” value is ≤ 0.2.

As for DPVM, the “one-hybrid fitness for binding NBS DNA” value was ≤ 0.2.

With AAFC, the “one-hybrid fitness for binding NBS DNA” value is ≤ 0.2.

On to CINT, for which the “one-hybrid fitness for binding NBS DNA” value was ≤ 0.2.

Turning to EPNV, the “one-hybrid fitness for binding NBS DNA” value was ≤ 0.2.

For the variant PPHV, the “one-hybrid fitness for binding NBS DNA” value was ≤ 0.2.

For QYYH, the “one-hybrid fitness for binding NBS DNA” value is ≤ 0.2.

Turning to CEDT, the “one-hybrid fitness for binding NBS DNA” value is ≤ 0.2.

RTCY: the “one-hybrid fitness for binding NBS DNA” value is ≤ 0.2.

On to TNEL, for which the “one-hybrid fitness for binding NBS DNA” value was ≤ 0.2.

As for MPST, the “one-hybrid fitness for binding NBS DNA” value was ≤ 0.2.

For HSCS, the “one-hybrid fitness for binding NBS DNA” value was ≤ 0.2.

Consider RTCH, for which the “one-hybrid fitness for binding NBS DNA” value was 0.234.

For the variant VKHC, the “one-hybrid fitness for binding NBS DNA” value is ≤ 0.2.

In the case of AFRI, the “one-hybrid fitness for binding NBS DNA” value was ≤ 0.2.

As for PQRL, the “one-hybrid fitness for binding NBS DNA” value was ≤ 0.2.

As for DNHY, the “one-hybrid fitness for binding NBS DNA” value was ≤ 0.2.

Take YRKP: the “one-hybrid fitness for binding NBS DNA” value is ≤ 0.2.

As for PMDR, the “one-hybrid fitness for binding NBS DNA” value was ≤ 0.2.

Take GGME: the “one-hybrid fitness for binding NBS DNA” value was ≤ 0.2.

Consider PYNI, for which the “one-hybrid fitness for binding NBS DNA” value was ≤ 0.2.

Regarding DTWS, the “one-hybrid fitness for binding NBS DNA” value is ≤ 0.2.

On to KNRR, for which the “one-hybrid fitness for binding NBS DNA” value was ≤ 0.2.

As to STCV, the “one-hybrid fitness for binding NBS DNA” value is ≤ 0.2.

On to GTQQ, for which the “one-hybrid fitness for binding NBS DNA” value was ≤ 0.2.

Turning to DVWS, the “one-hybrid fitness for binding NBS DNA” value is ≤ 0.2.

Regarding AYHG, the “one-hybrid fitness for binding NBS DNA” value is ≤ 0.2.

On to IKRA, for which the “one-hybrid fitness for binding NBS DNA” value was ≤ 0.2.

On to ETCF, for which the “one-hybrid fitness for binding NBS DNA” value is ≤ 0.2.

As for NMHL, the “one-hybrid fitness for binding NBS DNA” value is ≤ 0.2.

For NRAL, the “one-hybrid fitness for binding NBS DNA” value was ≤ 0.2.

On to RMNW, for which the “one-hybrid fitness for binding NBS DNA” value was ≤ 0.2.

In the case of LKNQ, the “one-hybrid fitness for binding NBS DNA” value was ≤ 0.2.

In the case of PFMS, the “one-hybrid fitness for binding NBS DNA” value is ≤ 0.2.

Regarding WVMN, the “one-hybrid fitness for binding NBS DNA” value was ≤ 0.2.

Take FGVM: the “one-hybrid fitness for binding NBS DNA” value is ≤ 0.2.

As for DYAG, the “one-hybrid fitness for binding NBS DNA” value was ≤ 0.2.

As for WRAR, the “one-hybrid fitness for binding NBS DNA” value is ≤ 0.2.

On to STLF, for which the “one-hybrid fitness for binding NBS DNA” value is ≤ 0.2.

Regarding GCNY, the “one-hybrid fitness for binding NBS DNA” value was ≤ 0.2.

In the case of NRFS, the “one-hybrid fitness for binding NBS DNA” value is ≤ 0.2.

Regarding DHQD, the “one-hybrid fitness for binding NBS DNA” value is ≤ 0.2.

For the variant TEWY, the “one-hybrid fitness for binding NBS DNA” value is ≤ 0.2.

As for QGQS, the “one-hybrid fitness for binding NBS DNA” value is ≤ 0.2.

In the case of IPTG, the “one-hybrid fitness for binding NBS DNA” value was ≤ 0.2.

Turning to GPYM, the “one-hybrid fitness for binding NBS DNA” value is ≤ 0.2.

Take VLTY: the “one-hybrid fitness for binding NBS DNA” value is ≤ 0.2.

Regarding ANDI, the “one-hybrid fitness for binding NBS DNA” value was ≤ 0.2.

Turning to LWYA, the “one-hybrid fitness for binding NBS DNA” value was ≤ 0.2.

As to IWMT, the “one-hybrid fitness for binding NBS DNA” value is ≤ 0.2.

In the case of LDTC, the “one-hybrid fitness for binding NBS DNA” value was ≤ 0.2.

For the variant WLYC, the “one-hybrid fitness for binding NBS DNA” value is ≤ 0.2.

Regarding NIHN, the “one-hybrid fitness for binding NBS DNA” value was ≤ 0.2.

In the case of YIKG, the “one-hybrid fitness for binding NBS DNA” value is ≤ 0.2.

With RAME, the “one-hybrid fitness for binding NBS DNA” value was ≤ 0.2.

Regarding MECT, the “one-hybrid fitness for binding NBS DNA” value is ≤ 0.2.

Take RLYF: the “one-hybrid fitness for binding NBS DNA” value was ≤ 0.2.

In the case of GSNW, the “one-hybrid fitness for binding NBS DNA” value is ≤ 0.2.

For AHDW, the “one-hybrid fitness for binding NBS DNA” value was ≤ 0.2.

Regarding LEAK, the “one-hybrid fitness for binding NBS DNA” value is ≤ 0.2.

Regarding QKWY, the “one-hybrid fitness for binding NBS DNA” value is ≤ 0.2.

As to QWSM, the “one-hybrid fitness for binding NBS DNA” value was ≤ 0.2.

For GLVL, the “one-hybrid fitness for binding NBS DNA” value is ≤ 0.2.

In the case of DAMG, the “one-hybrid fitness for binding NBS DNA” value was ≤ 0.2.

For the variant TNTT, the “one-hybrid fitness for binding NBS DNA” value was ≤ 0.2.

In the case of QFRE, the “one-hybrid fitness for binding NBS DNA” value is ≤ 0.2.

Regarding DPVL, the “one-hybrid fitness for binding NBS DNA” value was ≤ 0.2.

For ETYT, the “one-hybrid fitness for binding NBS DNA” value is ≤ 0.2.

As to LPTC, the “one-hybrid fitness for binding NBS DNA” value is ≤ 0.2.

Take LTGF: the “one-hybrid fitness for binding NBS DNA” value was ≤ 0.2.

As for QKMF, the “one-hybrid fitness for binding NBS DNA” value was ≤ 0.2.

For the variant EYKG, the “one-hybrid fitness for binding NBS DNA” value is ≤ 0.2.

Regarding VLYY, the “one-hybrid fitness for binding NBS DNA” value is ≤ 0.2.

With NCAE, the “one-hybrid fitness for binding NBS DNA” value was ≤ 0.2.

With CPDR, the “one-hybrid fitness for binding NBS DNA” value was ≤ 0.2.

As to YASV, the “one-hybrid fitness for binding NBS DNA” value was ≤ 0.2.

Take LQTM: the “one-hybrid fitness for binding NBS DNA” value is ≤ 0.2.

Consider QGRV, for which the “one-hybrid fitness for binding NBS DNA” value was ≤ 0.2.

With PGSI, the “one-hybrid fitness for binding NBS DNA” value was ≤ 0.2.

For PITS, the “one-hybrid fitness for binding NBS DNA” value was ≤ 0.2.

For the variant WAAA, the “one-hybrid fitness for binding NBS DNA” value is ≤ 0.2.

As for VTWH, the “one-hybrid fitness for binding NBS DNA” value is ≤ 0.2.

As to PMPN, the “one-hybrid fitness for binding NBS DNA” value is ≤ 0.2.

On to SFKV, for which the “one-hybrid fitness for binding NBS DNA” value is ≤ 0.2.

As to VVTS, the “one-hybrid fitness for binding NBS DNA” value is ≤ 0.2.

As for CIQI, the “one-hybrid fitness for binding NBS DNA” value was ≤ 0.2.

Consider HPTC, for which the “one-hybrid fitness for binding NBS DNA” value was ≤ 0.2.

As to KRVV, the “one-hybrid fitness for binding NBS DNA” value was ≤ 0.2.

For NVCT, the “one-hybrid fitness for binding NBS DNA” value was ≤ 0.2.

For QQET, the “one-hybrid fitness for binding NBS DNA” value came to 0.371.

On to WKHS, for which the “one-hybrid fitness for binding NBS DNA” value was ≤ 0.2.

For the variant GCTY, the “one-hybrid fitness for binding NBS DNA” value is ≤ 0.2.

Turning to LYRW, the “one-hybrid fitness for binding NBS DNA” value was ≤ 0.2.

For the variant PQGS, the “one-hybrid fitness for binding NBS DNA” value is ≤ 0.2.

Consider WRAG, for which the “one-hybrid fitness for binding NBS DNA” value was ≤ 0.2.

With NMAR, the “one-hybrid fitness for binding NBS DNA” value is ≤ 0.2.

Take SCIA: the “one-hybrid fitness for binding NBS DNA” value is ≤ 0.2.

For the variant ACVI, the “one-hybrid fitness for binding NBS DNA” value is ≤ 0.2.

MNWM: the “one-hybrid fitness for binding NBS DNA” value was ≤ 0.2.

Consider DAAL, for which the “one-hybrid fitness for binding NBS DNA” value is ≤ 0.2.

Consider KVFR, for which the “one-hybrid fitness for binding NBS DNA” value is ≤ 0.2.

As for ENKY, the “one-hybrid fitness for binding NBS DNA” value is ≤ 0.2.

In the case of QMEE, the “one-hybrid fitness for binding NBS DNA” value is ≤ 0.2.

Regarding DVQV, the “one-hybrid fitness for binding NBS DNA” value is ≤ 0.2.

With HQAG, the “one-hybrid fitness for binding NBS DNA” value was ≤ 0.2.

As to DYMM, the “one-hybrid fitness for binding NBS DNA” value is ≤ 0.2.

KADF: the “one-hybrid fitness for binding NBS DNA” value was ≤ 0.2.

Turning to QSPW, the “one-hybrid fitness for binding NBS DNA” value was ≤ 0.2.

WDEC: the “one-hybrid fitness for binding NBS DNA” value is ≤ 0.2.

On to LPIT, for which the “one-hybrid fitness for binding NBS DNA” value is ≤ 0.2.

On to GDKR, for which the “one-hybrid fitness for binding NBS DNA” value is ≤ 0.2.

Consider AQSW, for which the “one-hybrid fitness for binding NBS DNA” value was ≤ 0.2.

For the variant SREF, the “one-hybrid fitness for binding NBS DNA” value was ≤ 0.2.

In the case of QSNV, the “one-hybrid fitness for binding NBS DNA” value is ≤ 0.2.

For the variant INLA, the “one-hybrid fitness for binding NBS DNA” value is ≤ 0.2.

In the case of ALRY, the “one-hybrid fitness for binding NBS DNA” value was ≤ 0.2.

Turning to NIHR, the “one-hybrid fitness for binding NBS DNA” value was ≤ 0.2.

Turning to IKKR, the “one-hybrid fitness for binding NBS DNA” value was 0.247.

AVVL: the “one-hybrid fitness for binding NBS DNA” value was ≤ 0.2.

As to APPR, the “one-hybrid fitness for binding NBS DNA” value was ≤ 0.2.

On to RCMC, for which the “one-hybrid fitness for binding NBS DNA” value was ≤ 0.2.

On to RTIF, for which the “one-hybrid fitness for binding NBS DNA” value is ≤ 0.2.
